Reference: the supplement of paper PMC12217912
Some of the results follow. Sequences were assembled here from the parent chain. Values near 0.05 are background.

B1: TEV protease; numbered along this chain (parent)
chain: MGESLFKGPRDYNPISSSICHLTNESDGHTTSLYGIGFGPFIITNKHLFRRNNGTLVVQSLHGVFKVKDTTTLQQHLVDGRDMIIIRMPKDFPPFPQKLKFREPQREERICLVTTNFQTKSMSSMVSDTSCTFPSGDGIFWKHWIQTKDGQCGSPLVSTRDGFIVGIHSASNFTNTNNYFTSVPKNFMELLTNQEAQQWVSGWRLNADSVLWGGHKVFMVKPEEPFQPVKEATQL

Variants of: B1
Assay: raw area under fraction-flipped curve 0-4 h after induction (AUC4h, not background-subtracted), DNA-recorder readout of cleavage of the substrate (dimensionless); higher = more cleavage of the substrate by the protease variant
Settings: temperature: 34 °C; time window: 0-4 h after rhamnose induction
Experimental: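 In vivo DNA recorder in E. coli TOP10(DE3) ΔrhaA at 34 °C. Each TEVp single-site mutant (parent TEVp 0) is paired with a single-site variant of the 7-mer TEVs (canonical ENLYFQ|S). The substrate sits between flexible linkers in a Bxb1-sfGFP-TEVs-SsrA fusion, so cleavage stabilises Bxb1 and speeds flipping of a recombination array, read by NGS. The value is the raw area under the fraction-flipped curve over 0-4 h after rhamnose induction (AUC4h), with ≥20 reads per time point. It is not background-subtracted; inactive controls average about 0.047.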
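Further: Bxb1 expression induced with 0.2% (w/v) L-rhamnose at OD600 near 0.5, cultures sampled hourly, flipped fraction per protease–substrate barcode pair counted by paired-end Illumina sequencing.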

Variant	area with substrate ENLYFQC	area with substrate ENLYFQE	area with substrate ENLYFQG	area with substrate ENLYFQH	area with substrate ENLYFQI	area with substrate ENLYFQK	area with substrate ENLYFQL	area with substrate ENLYFQM	area with substrate ENLYFQN	area with substrate ENLYFQP	area with substrate ENLYFQQ	area with substrate ENLYFQR	area with substrate ENLYFQS	area with substrate ENLYFQT	area with substrate ENLYFQV	area with substrate ENLYFQY	area with substrate ENLYFQD	area with substrate ENLYFQW	area with substrate ENLYFQF
R160A	0.106	0.0667	0.0606	0.0898	0.0631	0.0817	0.07	0.104	0.0742	0.0865	0.0721	0.0647	0.106	0.0576	0.0835	0.0635	–	–	–
G166Q	0.0541	–	0.0464	–	0.0591	0.0613	0.0646	–	0.0608	–	–	0.0512	0.0484	0.0646	–	–	0.0291	0.0479	–
G166T	0.0271	–	0.166	0.0702	0.0381	0.0508	–	0.048	0.0483	–	–	0.048	0.047	–	0.0465	0.0525	–	–	–
K185P	0.104	–	–	–	–	0.0633	0.0605	–	–	–	–	0.0623	0.113	0.0679	–	0.0976	0.0872	–	–
M188L	0.109	0.0654	0.0737	–	0.0398	–	0.0595	0.101	–	0.0464	–	0.0586	0.105	0.064	–	–	0.0514	0.0704	0.0654
M188T	0.111	0.0606	–	0.0804	0.064	0.072	0.0805	–	0.0808	–	0.0515	–	0.102	0.0444	0.0738	–	0.0792	0.072	–
E189I	0.106	–	0.0891	0.076	0.0514	0.0563	0.0547	0.0854	0.0566	–	–	0.0677	0.0961	0.0604	0.0612	–	0.0671	–	0.084
Q197C	0.148	–	–	–	0.0436	0.062	0.0593	0.107	–	–	–	0.0555	0.11	0.0683	0.0456	–	–	0.0675	–
V200E	0.0487	0.035	–	–	0.0559	–	0.0502	–	–	–	–	0.0657	0.0641	0.0664	–	–	–	–	–
G202N	0.0808	–	–	0.0532	0.0591	0.0504	0.054	0.0685	0.0788	0.061	–	0.068	0.0793	0.0613	–	–	0.0669	–	0.0669
R204N	0.103	0.0508	–	0.0887	0.055	–	0.0674	0.0743	0.0788	0.0562	–	0.07	0.104	0.0701	0.0648	0.0809	0.0721	0.077	0.0746
L205F	0.119	–	0.109	–	–	–	0.0612	0.098	–	–	0.0683	0.0563	0.104	0.034	–	–	–	0.0579	–
L205N	0.0671	–	0.0714	–	–	0.0672	–	–	–	–	–	0.0491	0.0748	0.0556	–	–	–	–	–
V217H	0.057	0.06	0.0643	–	0.0616	0.0456	0.0558	0.0611	–	–	–	–	0.0588	0.0546	0.063	–	0.0594	–	–
F218G	0.0836	–	0.0688	0.0625	–	–	0.0515	–	–	0.0747	–	0.0564	0.088	0.0167	0.0619	–	–	0.056	–
M219D	0.0977	–	0.0949	0.0565	0.0598	–	0.0622	0.0615	0.0561	–	–	0.0579	0.0945	0.0595	0.0611	–	–	0.0565	0.0256
M219R	0.0618	0.06	0.0711	–	0.0588	0.0585	0.0611	0.0766	0.066	0.0489	–	0.0561	0.0762	0.0539	0.0662	0.0532	0.0709	0.0524	0.0504
P222M	0.109	–	0.103	0.0524	–	0.057	0.065	–	0.0789	0.0496	0.0618	0.0538	0.0969	–	0.0586	0.0683	0.0569	–	–
E223F	0.0988	–	–	–	0.0611	0.0675	0.0607	0.063	0.0691	–	–	0.0569	0.0838	0.044	0.0657	–	–	–	–
E224P	0.109	–	0.0769	–	0.0551	–	0.0663	0.087	–	0.0665	–	0.066	0.0951	0.0593	0.0671	–	0.0791	0.085	–
E224T	0.109	–	0.102	0.0859	0.0781	–	0.0577	–	–	–	–	0.0512	0.0958	–	0.0647	0.0546	0.0886	0.0562	0.0801
P225W	0.0838	–	–	0.0784	0.063	–	–	–	–	0.0512	0.082	0.0515	0.0902	–	0.03	–	0.0596	0.0521	–
F226Y	0.129	0.0853	0.0813	0.0885	0.0558	0.0663	0.0578	–	0.0776	0.0575	0.106	0.0679	0.113	0.0641	–	0.0623	–	0.0658	–
Q227E	0.115	–	–	–	0.0643	0.072	0.0572	0.0907	0.0862	0.0584	0.0742	–	0.102	0.0689	0.0715	0.0431	–	0.0591	0.0943
Q227M	0.142	–	0.0801	0.0734	0.0524	0.0588	0.0549	0.0781	0.0909	–	0.0921	0.0534	0.102	–	0.0308	0.07	–	0.0737	–
V229H	0.111	–	0.085	0.0788	0.0764	–	0.0584	0.0963	0.0784	–	0.0655	0.0615	0.106	–	–	–	0.0692	–	0.0872
K230G	0.125	–	0.087	0.0811	0.0526	0.0753	–	–	0.0875	–	–	0.0613	0.107	–	0.0689	0.0891	0.0877	0.0649	0.075
E231M	0.0941	–	–	0.0894	–	0.0603	0.0615	0.0936	0.078	–	0.0782	0.0528	0.0941	0.0478	–	0.0724	0.0631	0.0712	–
A232P	0.124	–	0.102	–	0.0604	0.0785	0.0669	0.071	0.0771	–	–	0.0574	0.114	0.0771	–	0.11	–	–	0.0706
